# In patent US10683307B2, “Compounds for use in antibacterial applications” (GLAXOSMITHKLINE INTELLECTUAL PROPERTY DEVELOPMENT LIMITED, priority 2015, dated 2020):
# Where a name gives a salt, the structure may show the parent alone. Read-outs that look alike come from different tables or passages of the source.
# Columns and labels:
# Streptococcus pneumonia = conditions: Table 2 column B1 = Streptococcus pneumonia
# Description: (§1) Antimicrobial Activity Assay:
# (§2) Whole-cell antimicrobial activity was determined by broth microdilution using the Clinical and Laboratory Standards Institute (CLSI) recommended procedure, Document M7-A7, “Methods for Dilution Susceptibility Tests for Bacteria that Grow Aerobically” and M11-A8, “Methods for Antimicrobial Susceptibility Testing of Anaerobic Bacteria” The compounds were tested in serial two-fold dilutions ranging from 0.016 to 16 mcg/mL, as well as 0.008 to 32 μg/mL.
# (§3) Compounds were also evaluated against various Gram-positive organisms, various anaerobic organisms, and against various biothreat organisms.
# (§4) The minimum inhibitory concentration (MIC) was determined as the lowest concentration of compound that inhibited visible growth. A mirror reader was used to assist in determining the MIC endpoint.
# Staphylococcus aureus = conditions: Table 2 column A1 = Staphylococcus aureus
# Description: as §1, §2, §3, §4
# Streptococcus pyogenes = conditions: Table 2 column C1 = Streptococcus pyogenes
# Description: as §1, §2, §3, §4
# [1] = test system: viridans group Streptococcus
# Description: as §1, §2, §3, §4
# [2] = Streptococcus pneumoniae, read-out: MIC90
# [3] = Streptococcus pyogenes, read-out: MIC90
Compound,MIC90 (Streptococcus pneumonia; [2]) [µg/mL],MIC90 (Staphylococcus aureus; read-out: MIC90) [µg/mL],MIC90 (Streptococcus pneumonia) [µg/mL],MIC90 (Streptococcus pyogenes) [µg/mL],MIC90 (Staphylococcus aureus) [µg/mL],MIC90 [1] [µg/mL],MIC90 (Streptococcus pyogenes; [3]) [µg/mL]
"COc1ccc2ccc(=O)n(CCN3C[C@H](CNCc4cnc5c(n4)NC(=O)CS5)[C@H](O)C3)c2n1 [Compound Y, 1-{2-[(3S,4S)-3-hydroxy-4-{[({3-oxo-2H,3H,4H-pyrazino[2,3-b][1,4]thiazin-6-yl}methyl)amino]methyl}pyrrolidin-1-yl]ethyl}-7-methoxy-1,2-dihydro-1,8-naphthyridin-2-one]",≤ 0.032,≤ 0.125,,,,,
"Cn1cc(C(=O)O)c(=O)c2c(CC[C@H]3CC[C@H](NCc4cnc5c(n4)NC(=O)CS5)CC3)c(F)cc(F)c21 [Compound Z, TFA salt, 6,8-difluoro-1-methyl-4-oxo-5-(2-((1r,4s)-4-(((3-oxo-3,4-dihydro-2H-pyrazino [2,3-b][1,4]thiazin-6-yl)methyl)amino)cyclohexyl)ethyl)-1,4-dihydroquinoline-3-carboxylic acid]",> 32,≤ 0.063,,,,,
"COc1cnc2ccc(F)c(CNC3CCC(NCc4cnc5c(n4)NC(=O)CO5)CC3)c2n1.Cl [Formula (V) HCl salt, 6-((((1R,4R)-4-(((6-fluoro-3-methoxyquinoxalin-5-yl)methyl)amino)cyclohexyl)amino)methyl)-2H-pyrazino[2,3-b][1,4]oxazin-3(4H)-one, Hydrochloride]",,,≤0.125,≤0.25,≤0.063,≤2,
"COc1cnc2ccc(F)c(CN[C@H]3CC[C@H](NCc4cnc5c(n4)NC(=O)CO5)CC3)c2n1 [Formula (V) free base, 6-((((1R,4R)-4-(((6-fluoro-3-methoxyquinoxalin-5-yl)methyl)amino)cyclohexyl)amino)methyl)-2H-pyrazino[2,3-b][1,4]oxazin-3(4H)-one]",≤ 0.25,≤ 0.125,,,,,≤ 0.25
"COc1ccc2ncc(=O)n(CCN3CC[C@@H](CNCc4ncc5c(n4)NC(=O)CO5)C3)c2n1 [Formula (VII) HCl salt, 2-({[((3S)-1-{2-[6-(methyloxy)-3-oxopyrido[2,3-b]pyrazin-4(3H)-yl]ethyl}-3-pyrrolidinyl)methyl]amino}methyl)-1H-pyrimido[5,4-b][1,4]oxazin-7(6H)-one]",≤ 0.5,≤ 0.125,,,,,≤ 0.25
"COc1ccc2ncc(=O)n(CCN3CC[C@@H](CNCc4ncc5c(n4)NC(=O)CO5)C3)c2n1 [Formula (VII) free base, 2-({[((3S)-1-{2-[6-(methyloxy)-3-oxopyrido[2,3-b]pyrazin-4(3H)-yl]ethyl}-3-pyrrolidinyl)methyl]amino}methyl)-1H-pyrimido[5,4-b][1,4]oxazin-7(6H)-one]",,,≤0.25,≤0.125,≤0.125,,
